Data taken from PubChem BioAssay AID485344 (National Center for Advancing Translational Sciences (NCATS), 2010).
The campaign covered roughly 340,000 compounds. About 6,900 (2%) were called active. No stated cut-off is given here; in the data, active means inhibition above about 30%; inactive means below that, where a call was filed. The entries are a selection whose mix differs from that of the whole data set. The source gives no active or inactive call for entries shown without one.

Biological target: D(2) dopamine receptor (Homo sapiens) (UniProt P14416)
Chain of UniProt P14416 (P14416 whole entry, looked up): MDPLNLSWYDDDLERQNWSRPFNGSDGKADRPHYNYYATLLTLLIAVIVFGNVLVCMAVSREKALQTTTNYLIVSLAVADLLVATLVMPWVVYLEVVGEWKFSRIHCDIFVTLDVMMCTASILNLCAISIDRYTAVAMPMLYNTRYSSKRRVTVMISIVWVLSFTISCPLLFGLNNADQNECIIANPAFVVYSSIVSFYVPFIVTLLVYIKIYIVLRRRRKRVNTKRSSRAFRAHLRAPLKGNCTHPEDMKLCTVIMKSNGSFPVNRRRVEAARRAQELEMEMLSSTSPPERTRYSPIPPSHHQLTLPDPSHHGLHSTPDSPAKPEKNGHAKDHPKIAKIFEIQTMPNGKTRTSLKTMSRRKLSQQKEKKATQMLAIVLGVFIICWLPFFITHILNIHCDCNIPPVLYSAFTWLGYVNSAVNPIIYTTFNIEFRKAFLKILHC
Assay: HTS Assay for Allosteric Antagonists of the Human D2 Dopamine Receptor: Primary Screen for Antagonists; further: 0% is about no effect
Settings: HEK293 TREx D2 cells, calcium flux, dopamine EC80; at 10 µM; stronger effect = higher value
How it was run: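 Overnight-induced (tetracycline, 30 C) HEK293 T-REx cells carrying force-coupled D2 receive a no-wash calcium dye, then compound, then EC80 dopamine at 180 s; signals are read kinetically throughout.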

Compared with `Cc1ccc(NC(=O)Nc2cccc(C)n2)cc1`, `CCOc1ccc(NC(=O)NCCN2CCN(c3cccc(C)c3C)CC2)cc1` is higher in inhibition: 3.2% for the first, 24.8% for the second.

Compared with `CCOc1ccc(C2CC(=O)NC(NC(=O)c3cccc(Cl)c3)=N2)cc1` (stereo not drawn), `CCOc1ccc(-n2c(SCC(=O)Nc3cc(C)on3)nc3c([nH]c4ccccc43)c2=O)cc1` is lower in inhibition: 1.56% for the first, -0.502% for the second.

Going from `CC(=O)c1ccc(NC(=O)c2cn(-c3ccccc3)nc2-c2ccc(Br)cc2)cc1` to `CC(=O)c1cccc(NC(=O)c2oc(=O)c3ccccc3c2-c2ccccc2)c1`, the inhibition falls from 1.05% to -10.3%.

Going from `O=C(CCC1CCCC1)N1CCc2c([nH]c3ccccc23)C1c1ccc(F)cc1` (stereo not drawn) to `COc1cccc(NC(=O)N(Cc2c[nH]c3ccccc23)C2CCCCCC2)c1`, the inhibition rises from 12.9% to 18.1%.

Compared with `CCc1nnc(SC(CC)C(=O)Nc2ccc(OC)c(Cl)c2)c2cc3occc3n12` (stereo not drawn), `COc1ccc(-c2cc3nc(C)c(CCC(=O)NCc4ccccc4Cl)c(C)n3n2)c(OC)c1` is higher in inhibition: 13.9% for the first, 18.2% for the second.

Compared with `CCc1cccc(C)c1NC(=O)C1CCN(S(=O)(=O)c2c(C)noc2/C=C/c2c(C)cc(C)cc2C)CC1`, `CCc1ccccc1N(C)C(=O)Cn1cnc2sc(C)c(S(=O)(=O)N3CCC(C)CC3)c2c1=O` is lower in inhibition: 12.9% for the first, 12.7% for the second.

Compared with `N#Cc1nc(COc2ccccc2Cl)oc1NCCc1ccccc1`, `Cc1ccc(Cn2c(CCCNC(=O)c3ccco3)nc3ccccc32)cc1` is higher in inhibition: -6.71% for the first, 22.9% for the second.

Going from `Cc1ccc(Nc2ccc3cc(S(=O)(=O)N4CCCCC4)ccc3n2)cc1F` to `Cc1ccc(NC(=O)c2oc3ccc(S(=O)(=O)N4CCCCCC4)cc3c2C)c(C)c1`, the inhibition rises from 2.09% to 22.5%.

Going from `COc1ccc(C)cc1NC(=O)Cn1c(=O)oc2cc(S(=O)(=O)N3CCCCC3)ccc21` to `COC(=O)Cn1ccc2cc(S(=O)(=O)N3CCCCCC3)ccc21`, the inhibition rises from -12.3% to 0.912%.

First: CCOC(=O)c1ccc(NC(=O)CSc2nc(-c3ccc(OC)cc3)cc(C(F)(F)F)c2C#N)cc1
Second: CCOC(=O)c1cc(OC(=O)c2ccc(OC)cc2)n(-c2ccccc2)n1
The inhibition of the first is lower: -1.01% for the first, 10.4% for the second.

First: COc1ccc(N(CC(=O)N2CCN(c3ccccc3)CC2)S(=O)(=O)c2c(C)nn(C)c2C)cc1
Second: COc1ccc(N2CCN(C(=O)CCC(=O)NNc3nc4ccccc4c4nc(C)nn34)CC2)cc1
The inhibition of the first is higher: 15.1% for the first, -5.04% for the second.

First: CCOC(=O)c1c(C)oc2nc(C)nc(N3CCN(c4cc(Cl)ccc4C)CC3)c12
Second: Cc1ccc(C)c(N2CCN(C(=O)c3ccc(Nc4nc5ccccc5n5nnnc45)cc3)CC2)c1
The inhibition of the first is lower: -3.26% for the first, 1.76% for the second.

First: CCOC(=O)c1cc(OC(=O)c2cc(OC)c(OC)c(OC)c2)n(-c2ccccc2)n1
Second: COc1cc(-c2cc3n(C)c(C)c(CCC(=O)NCc4ccccc4)c(=O)n3n2)cc(OC)c1OC
The inhibition of the first is lower: 11% for the first, 25.7% for the second.

Going from `COc1cccc(CNC(=O)CCCn2nc(C)c3sc4ccccc4c3c2=O)c1` to `Cc1ccc(CNC(=O)CCCN2C(=O)CCn3nc(-c4cn(C)c5ccccc45)cc32)cc1`, the inhibition rises from 15.3% to 22.7%.

Going from `COc1ccc(NC(=O)c2cc3c(=O)n(Cc4cccs4)ccc3nc2C)cc1` to `COc1ccc(-n2cc(C(=O)Nc3cc(F)ccc3F)c3ccccc3c2=O)cc1`, the inhibition falls from 4.93% to -22.3%.

Going from `COc1ccc(-n2c(C)nnc2SCc2nc(-c3ccc(OC)c(OC)c3)no2)cc1` to `COc1cccc(-c2noc(COc3ccc(C(C)(C)C)cc3)n2)c1`, the inhibition falls from 3.8% to -4.21%.

Going from `COc1ccc(OC)c(NC(=O)Cn2c(=O)n(-c3cccc(C)c3)c(=O)c3c2c2cc(C)ccc2n3C)c1` to `COc1ccc2c(c1)c1c(c(=O)n(Cc3ccccc3)c(=O)n1CC(=O)NCc1ccc(C)cc1)n2C`, the inhibition falls from -2.67% to -3.26%.

Compared with `Cc1ccc(NC(=O)c2c(NC(=O)c3ccc(F)cc3)sc3c2CCCC3)cc1C`, `O=C(Cn1nc(-c2ccccc2)c2c(c1=O)CCCC2)Nc1ccc(F)c(Cl)c1` is higher in inhibition: -7.36% for the first, 9.65% for the second.

Going from `Cc1ccccc1NS(=O)(=O)c1ccc2[nH]cc(C(=O)NC3CCCCC3)c(=O)c2c1` to `Cc1ccccc1NC(=O)Cn1c(=O)n(Cc2ccc3c(c2)OCO3)c(=O)c2ccc(C(=O)NC3CCCCC3)cc21`, the inhibition rises from -5.73% to -3.36%.

First: CCn1c(=O)c2cc(C(=O)NC3CCC(C)CC3)sc2c2ccccc21 (stereo not drawn)
Second: CC1CCN(C(=O)CN2c3ccc(C(C)C)cc3-c3ccccc3S2(=O)=O)CC1
The inhibition of the first is lower: -9.02% for the first, 18.5% for the second.

Compared with `CCn1c(C(=O)Nc2c(C)cccc2C)cc2sc(Cl)cc21`, `Cc1ccc(C)c(CNC(=O)c2ccc3c(c2)nc2n3CCC(C)C2)c1` (stereo not drawn) is higher in inhibition: 1.55% for the first, 7.45% for the second.

First: CN(C(=O)c1cc2c(Cl)nc3ccccc3c2s1)c1cccc(C(F)(F)F)c1
Second: O=C(NCCc1csc(-c2cccc(F)c2)n1)c1ccccc1C(F)(F)F
The inhibition of the first is lower: -5.54% for the first, -0.709% for the second.

Going from `CCN(C(=O)CN1C(=O)COc2ccc(S(=O)(=O)N3CCOCC3)cc21)c1cccc(C)c1` to `CC(C)CN(CCNC(=O)c1cn(C)c2ccc(S(=O)(=O)N3CCOCC3)cc2c1=O)CC(C)C`, the inhibition rises from -4.46% to 16%.

First: COC(=O)c1ccc(NC(=O)Cn2c(-c3nonc3N)nc3ccccc32)cc1
Second: CCOC(=O)c1ccc(NC(=O)c2nc(SC(C)C)ncc2Cl)cc1
The inhibition of the first is higher: -9.09% for the first, -15.1% for the second.

Compared with `CCCc1cnc2c(c1SCC(=O)Nc1c(C)cc(C)cc1C)c(=O)n(C)c(=O)n2C`, `COc1cc(OC)c(NC(=O)Cn2c(=O)cc(C)c3c(C)nn(-c4ccc(C)cc4)c32)cc1Cl` is lower in inhibition: 10.9% for the first, 3.51% for the second.

Going from `CCc1nn(-c2ccccc2)c2nc(-c3ccc(O)cc3)c3cc(OC)c(OC)cc3c12` to `COc1ccccc1-c1cc2nc(C)c(CCC(=O)NCCc3ccc(SC)cc3)c(C)n2n1`, the inhibition falls from 5.41% to -21%.

First: Cc1cccc(-c2nc(CN3CCCC(C(=O)NCc4ccc(Cl)cc4)C3)c(C)o2)c1 (stereo not drawn)
Second: COc1cccc(CNC(=O)C2CCN(Cc3cc4ccccc4n3Cc3ccc(C)cc3)CC2)c1
The inhibition of the first is higher: 3.53% for the first, -26.8% for the second.

First: CCOC(=O)N1CCC2(CC1)OC(=O)C(C)=C2C(=O)NCc1ccc(C)cc1
Second: CCOC(=O)c1cc(C)n(CC2CCC(C(=O)Nc3ccc(C)cc3)CC2)c1C (stereo not drawn)
The inhibition of the first is lower: -7.95% for the first, -1.87% for the second.

First: CCNC(=O)c1ccc(CSc2nc3cccnc3n2Cc2ccc(OC)cc2)cc1
Second: CSc1ccc(C(=O)Nc2ccc(-c3nc4ccccc4s3)c(O)c2)cc1
The inhibition of the first is higher: -1.74% for the first, -22.4% for the second.

Compared with `Cc1ccc(OCc2nnc(SCC(=O)Nc3ccccc3C(C)C)o2)cc1`, `CCc1ccc(NC(=O)c2ccc3nc(C(C)C)oc3c2)cc1` is higher in inhibition: -5.07% for the first, 11.8% for the second.

Compared with `CSc1ccc(-c2nc3c(C)cccn3c2Nc2ccc3c(c2)OCCO3)cc1`, `Cc1ccc2cccc(NC(=O)c3ccc(-c4cccc(Cl)c4Cl)o3)c2n1` is higher in inhibition: 9.38% for the first, 10.6% for the second.

Going from `O=C(NCc1ccc(F)cc1)C1CCCCN1S(=O)(=O)c1ccc(F)cc1` (stereo not drawn) to `CCOc1ccc(CNC(=O)Cn2ccc3cc(S(=O)(=O)N4CCCCCC4)ccc32)cc1`, the inhibition falls from 3.59% to -14.5%.

First: CSCCC(NS(=O)(=O)c1ccc2c(c1)oc(=O)n2C)C(=O)NCc1ccccc1 (stereo not drawn)
Second: COc1ccc(NC(=O)C(Cc2ccccc2)NS(=O)(=O)c2ccc3c(c2)CCN3C(C)=O)cc1 (stereo not drawn)
The inhibition of the first is higher: 21.3% for the first, 13.6% for the second.

Compared with `Cn1nc(C(=O)NCc2ccc(F)cc2)c2c1-c1ccccc1SC2`, `Cc1ccc(-c2c(C(=O)NCc3ccc(F)cc3)oc(=O)c3ccccc23)cc1` is lower in inhibition: 20.6% for the first, -7.41% for the second.

Compared with `Cc1cc(-c2ccccc2)n2nc(-c3cccc(Br)c3)cc2n1`, `Cc1nc2c(-c3ccccc3)c(C)nn2c(C)c1CCC(=O)NCc1ccc(Cl)cc1` is higher in inhibition: -20.6% for the first, -17.1% for the second.

First: CCc1ccc(NC(=O)N2c3ccccc3Sc3ccccc32)cc1
Second: COc1ccccc1CNC(=O)c1cc2cccc3c2n1CC(C)S3 (stereo not drawn)
The inhibition of the first is lower: -17.7% for the first, 2.55% for the second.

First: CCN(Cc1ccccc1)S(=O)(=O)c1ccc2c(c1)CCCN2C(C)=O
Second: CS(=O)(=O)N(CC(=O)NCCSCc1ccccc1)c1cc(C(F)(F)F)ccc1Cl
The inhibition of the first is higher: -11% for the first, -20.1% for the second.

First: Cc1ccc(C)c(Cn2cnc3c(cnn3-c3ccc(F)cc3)c2=O)c1
Second: O=C(Cn1cnc2onc(-c3ccc(F)cc3)c2c1=O)Nc1cccc(C(F)(F)F)c1
The inhibition of the first is higher: 4.12% for the first, 0.902% for the second.

Compared with `COc1ccc(CCNS(=O)(=O)c2ccc(N3CCCCS3(=O)=O)cc2)cc1OC`, `COc1ccc(NC(=O)CC2C(=O)N(c3ccccc3)C(=O)N2C2CCCCC2)cc1` (stereo not drawn) is lower in inhibition: 14.1% for the first, 3.05% for the second.

Going from `COc1ccc2oc(=O)c(C(=O)Nc3cccc(C(=O)O)c3)cc2c1` to `CCOC(=O)c1cc2c(=O)n3ccccc3nc2n(C)c1=NC(=O)c1c(-c2ccccc2Cl)noc1C`, the inhibition rises from -7.23% to -2.12%.

First: O=C(Nc1ccc(F)cc1F)c1ccc2c(c1)CCN2S(=O)(=O)c1ccc(Cl)cc1
Second: CCOC(=O)Cc1ccc(NC(=O)Nc2cc3c(cc2N2CCCCC2)n(C)c(=O)n3C)cc1
The inhibition of the first is lower: -0.0254% for the first, 9.35% for the second.

Molecule `CCCn1c(=N)c(C(=O)NCc2cccnc2)cc2c(=O)n3ccccc3nc21` has an inhibition of -0.611%.

In the case of `CCN1CCC(NC(=O)Nc2cccc(C(F)(F)F)c2)CC1`, the inhibition is reported as active: 36.7%.
In the case of `CCOc1ccccc1NC(=O)CSc1nnnn1-c1ccc(C(=O)OC)cc1`, the inhibition is reported as active: 49.9%.
`COCCCNC(=O)C1C2C=CC3(CN(Cc4ccc(C)cc4)C(=O)C13)O2` (stereo not drawn) was tested, and the inhibition was active: 39.1%.
For `CC1CCCN(S(=O)(=O)c2ccc(C(=O)Nc3nnc(-c4ccccn4)o3)cc2)C1` (stereo not drawn), the inhibition was active: 34.6%.
For `CC(C)(C)OC(=O)N1CCC(c2c(C(=O)NCC3CCN(C4CCCC4)C3)cnn2-c2ccccc2Cl)CC1` (stereo not drawn), the inhibition was active: 46.1%.
For `CCc1ccc(-c2cc(C)no2)cc1S(=O)(=O)N1CCN(c2ccc(F)cc2)CC1`, the inhibition was active: 35.5%.
With `COc1ccccc1N1CCN(C(=O)C(=O)c2cn(CC(=O)N3CCCCCC3)c3ccccc23)CC1` the inhibition was active: 37.6%.
For `Cc1nn(-c2ccccc2)c(Cl)c1/C=N/NC(=O)CNC(=O)c1ccccc1Cl`, the inhibition was active: 46.1%.
With `COc1cc2[nH]c(C(=O)Nc3ccc(F)cc3)cc2c(OC)c1OC` the inhibition was active: 89%.
In the case of `CC(C)(C)CN1CCC(Oc2cccc(C(=O)N3CCNC(=O)C3(C)C)c2)CC1`, the inhibition is reported as active: 31.6%.
